From patent US20070087411A1 (Regeneron, published 2007) come the findings set out here.

This assay has as its target T1, biotinylated IGF-1 (GroPep) (Homo sapiens (Human), UniProt P05019 part only, Biotinylated. The site or sites and the number of biotins are not stated and are not carried in the letters.).
T1 construct: Added at 1 ug/ml to IGF trap molecules captured on anti-hFc antibody
Description: ELISA: trap captured on anti-hFc antibody, biotinylated IGF-1 at 1 ug/ml, streptavidin-HRP; Kd fitted with Prism. How it is done: In vitro binding activity of the fusion polypeptides. Wells were coated with 2 ug/ml of anti-hFc antibody (Pierce) overnight at 4° C. and blocked with PBS with 05% Tween and 10% BSA (PBST). IGF trap molecules were added at different dilutions. After 1 hr at room temperature, the wells were washed 4× with PBST and biotinylated IGF-1 (GroPep) added at 1 ug/ml. Streptavidin HRP (0.2 ug/ml) in PBST was added and developed for 20 min. Kd was determined using standard techniques using Prism software from Graph Pad™.

T1 sequence (P05019 49-118 limits assumed): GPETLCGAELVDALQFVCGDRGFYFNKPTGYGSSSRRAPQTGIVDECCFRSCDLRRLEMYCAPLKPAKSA

B1: hIGFR (1-489).hFc.CT.hFc.CT (Fc fusion)
chain: EICGPGIDIRNDYQQLKRLENCTVIEGYLHILLISKAEDYRSYRFPKLTVITEYLLLFRVAGLESLGDLFPNLTVIRGWKLFYNYALVIFEMTNLKDIGLYNLRNITRGAIRIEKNADLCYLSTVDWSLILDAVSNNYIVGNKPPKECGDLCPGTMEEKPMCEKTTINNEYNYRCWTTNRCQKMCPSTCGKRACTENNECCHPECLGSCSAPDNDTACVACRHYYYAGVCVPACPPNTYRFEGWRCVDRDFCANILSAESSDSEGFVIHDGECMQECPSGFIRNGSQSMYCIPCEGPCPKVCEEEKKTKTIDSVTSAQMLQGCTIFKGNLLINIRRGNNIASELENFMGLIEVVTGYVKIRHSHALVSLSFLKNLRLILGEEQLEGNYSFYVLDNQNLQQLWDWDHRNLTIKAGKMYFAFNPKLCVSEIYRMEEVTGTKGRQSKGDINTRNNGERASCETG[letters of human IgG1 Fc not shown]ARAVFENFLHNSIFVPRPETG[letters of human IgG1 Fc not shown]ARAVFENFLHNSIFVPRPE
notes: Self-associating construct with two Fc parts; also called hIGFIR(1-489).hFc.CTP.hFc.CTP; IGF trap molecule
Molecule B1 displayed a Kd of 2 nM.

For orientation: Kd means the equilibrium constant for the complex coming apart.
